Data on 80 compounds can be found in ChEMBL document CHEMBL1201862, “PubChem BioAssay data set” (2004).

Molecules are shown by their SMILES.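 Each compound was tested at five concentrations against cells in 96-well plates for 48 hours. The concentration for 50% growth inhibition is given as GI50.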 Active and inactive are the calls of the source. No stated cut-off is given here; in the data, active = GI50 up to about 1.1 µM and inactive = higher.

The test concerns NCI-H322M. As to the kind of experiment: NCI-60 cell line screen, 48 h.
For `C[Si](C)(c1ccc(C(=O)O)cc1)c1ccc(C(=O)O)cc1`, the GI50 is inactive: > 100 µM.

Regarding `C=CC1(C)CC(=O)C2(O)C(C)(O1)C(OC(C)=O)C(O)C1C(C)(C)CCC(O)C12C` (stereo not given), the GI50 is inactive: > 95.3 µM.

For `O=C1c2ccccc2C2(c3ccc(F)cc3)NCCN12` (stereo not given), the GI50 was inactive: > 100 µM.

Consider `COc1cc(C2c3cc4c(cc3CC3COC(=O)N32)OCO4)cc(OC)c1OC` (stereo not given), for which the GI50 is inactive: 5.85 µM.

Regarding `O=C(CN1C(=O)c2ccccc2C1=O)C(O)CN1C(=O)c2ccccc2C1=O` (stereo not given), the GI50 was inactive: > 100 µM.

With `Cc1ccc(NC(=O)C(=O)CC(=O)c2sc(Nc3c(C)cccc3C)nc2C)cc1C`, the GI50 was inactive: > 100 µM.

Regarding `CCOC1=C2N=C(Cc3ccccc3F)N=C2C(=O)c2ccccc21`, the GI50 is inactive: > 100 µM.

As to `O=C(NCCCCCCCCNC(=O)c1cnc2ccccc2n1)c1cnc2ccccc2n1`, the GI50 is inactive: > 100 µM.

For the compound `CCCCCCC(=O)O[C@H]1CC[C@H]2[C@@H]3CCC4C/C(=N/NC(=O)c5cccc6c(=O)c7ccccc7[nH]c56)C=C(C)[C@]4(C)[C@H]3CC[C@]12C` (stereo not given in full), the GI50 was inactive: > 25 µM.

Regarding `CN(C)Cc1c(O)ccc2c1c1c(n2C)C(=O)c2ccccc2C1=O`, the GI50 is inactive: 8.93 µM.

`O=C(O)[C@H](CCC[C@H]1C(=O)O[C@H](c2ccccc2)[C@H](c2ccccc2)N1C(=O)OCc1ccccc1)N[C@@H](c1ccccc1)[C@H](O)c1ccccc1`: the GI50 was inactive: 27.9 µM.

In the case of `CC(=O)ON(OC(C)=O)c1ccc(C)cc1`, the GI50 is inactive: 55 µM.

Turning to `COC(=O)Nc1nc(=O)c2ccccc2[nH]1`, the GI50 is inactive: > 100 µM.

As for `O=c1[nH]c(=O)n(COCCO)c2ccc(Br)cc12`, the GI50 is inactive: > 100 µM.

For `S=C(/N=c1\sc(NCc2ccccc2)nc2sc3c(c12)CCN(N1CCc2c(sc4nc(NCc5ccccc5)s/c(=N\C(=S)NCc5ccccc5)c24)C1)C3)NCc1ccccc1`, the GI50 is inactive: 32.8 µM.

Regarding `CCCCC1=C(C(=O)N2CCOCC2)C2(OCCO2)C1Cl` (stereo not given), the GI50 was inactive: 90.4 µM.

Take `Cc1ccc(C)c2c1n1c(=O)n(C)c(=O)n21`: the GI50 is inactive: > 100 µM.

`CN(CCO)c1nc(=O)c2c(n1C1OC(CO)C(O)C(O)C1O)CCCC2` (stereo not given): the GI50 was inactive: > 100 µM.

Consider `CC(=O)OC(=C(C#N)C#N)c1nccnc1C(C)=O`, for which the GI50 is inactive: > 20 µM.

Consider `COc1ccccc1C1C(C(=O)O)=C(CO)Oc2cc3c(cc21)OCO3` (stereo not given), for which the GI50 was inactive: > 100 µM.

In the case of `CCOC(=O)/C(=C\NCc1ccc2c(c1)OCO2)c1nc2ccccc2[nH]1`, the GI50 is inactive: 46 µM.

Take `CN1C(c2ccccc2)CC(O)CC1c1ccccc1` (stereo not given): the GI50 was inactive: > 100 µM.

Consider `COc1c(C)cc(O)cc1C=O`, for which the GI50 was inactive: > 100 µM.

In the case of `CCc1cccc(C)c1NS(=O)(=O)c1ccccc1`, the GI50 was inactive: > 100 µM.

`CC(C)(CNC(=O)/C(Cl)=C(/Cl)C(=O)O)CNC(=O)/C(Cl)=C(/Cl)C(=O)O`: the GI50 was inactive: > 100 µM.

On to `Cc1cc(C)c2c(=N)c3ccccc3n(CCCCCCO)c2n1`, for which the GI50 was inactive: 5.41 µM.

With `O=C1CC(=O)NC(NN2C(=O)CSC2c2ccc(Cl)c(Cl)c2)=N1` (stereo not given), the GI50 was inactive: > 100 µM.

`CCCCCCCC(=O)OC(CBr)COC(=O)C(C)(C)C` (stereo not given): the GI50 is inactive: > 100 µM.

For the compound `O=C(O)c1cc2ccccc2c(/N=N/c2ccc(S(=O)(=O)Nc3ncccn3)cc2)c1O`, the GI50 was inactive: > 100 µM.

For `CNC1C(O)C(NC)C2OC3(O)C(=O)CC(C)OC3OC2C1O` (stereo not given), the GI50 is inactive: > 100 µM.

Take `COc1ccc(C2OC(=O)c3ccc4ccccc4c32)c(C)c1` (stereo not given): the GI50 was inactive: 24.5 µM.

Regarding `COc1ccc(/C=C/C(=N/NC(=O)N/N=C(/C=C/c2ccc(OC)cc2)C(C)(C)CN2CCCCC2)C(C)(C)CN2CCCCC2)cc1`, the GI50 was inactive: 2.33 µM.

In the case of `C[C@H]1CC(=O)[C@@]2(O)C#C/C=C\C#C[C@@H]3Nc4c(cc(O)c5c4C(=O)c4ccccc4C5=O)[C@]24O[C@]314`, the GI50 was active: 0.139 µM.

As for `COc1ccc2c(c1)CC[C@@H]1[C@@H]2CC[C@]2(C)C(=O)/C(=C/c3ccc(OC)c(OC)c3)C[C@@H]12`, the GI50 is inactive: > 100 µM.

Consider `CC1=C(C)C(=O)c2c(cc3ccccn23)C1=O`, for which the GI50 was inactive: 20.4 µM.

Regarding `CC12CC3(O)OC(O1)C1(COC(=O)c4ccccc4)C3CC21OC1OC(CO)C(O)C(O)C1O` (stereo not given), the GI50 was inactive: > 100 µM.

Take `CC(C)(C)NNC(=O)CCn1[nH]c(=O)c(Cl)c(Cl)c1=O`: the GI50 was inactive: > 100 µM.

In the case of `O=c1[nH]c2cc([N+](=O)[O-])c(N(CCO)CCO)c([N+](=O)[O-])c2[nH]1`, the GI50 is inactive: 37.8 µM.

For the compound `C(/Cc1ccc2c(c1)OCO2)=N\N=C1NCCN1`, the GI50 was inactive: > 100 µM.

In the case of `CCOC(=O)N/N=C(\CC)NO`, the GI50 was inactive: > 100 µM.

On to `O=C1C(Sc2ccc3ccccc3c2)=C(Sc2ccc3ccccc3c2)C(=O)c2ccccc21`, for which the GI50 is inactive: 19 µM.

Take `COc1ccc2c(c1)CCN1CCCc3ccc(OC)cc3C21` (stereo not given): the GI50 was inactive: 86.1 µM.

On to `CCCCC1NC=Nc2c1ccc1c2[nH]c2ccccc21` (stereo not given), for which the GI50 is inactive: 2.22 µM.

As to `C[C@@H](NC(=O)[C@@H]1C[C@]1(C)CO)c1cccc2ccccc12`, the GI50 was inactive: > 100 µM.

For `COC(=O)C(=Cc1cc(OC)ccc1OC)C(=O)OC`, the GI50 was inactive: 29.2 µM.

Regarding `CCOc1cc(NC(C)=O)ccc1C(=O)NN1C(=O)/C(=C/c2ccco2)N=C1c1ccccc1`, the GI50 is inactive: > 100 µM.

With `Nc1nc(O)nc2sc3c(c12)CCCC3`, the GI50 is inactive: > 100 µM.

As for `C=C1C(=O)OC2/C=C(\CO)C3OC3C3OC3(C)CC(OC(=O)/C(=C/C)CO)C12` (stereo not given), the GI50 was inactive: > 100 µM.

With `CC1CC/C(=C\c2ccc(F)cc2)C2=C1C(c1ccc(F)cc1)n1c(s/c(=C/c3cccc(Br)c3)c1=O)=N2` (stereo not given), the GI50 was inactive: > 100 µM.

For `COc1cc([C@@H]2c3cc4c(cc3[C@@H](NC(=O)c3ccc(OC(C)=O)cc3)C3COC(=O)[C@@H]32)OCO4)cc(OC)c1O` (stereo not given in full), the GI50 is inactive: 18.3 µM.

Take `O=C(/C=C/c1ccco1)c1cccc(C(=O)/C=C/c2ccco2)n1`: the GI50 is inactive: 49.8 µM.

For `O=C1c2c(O)cccc2C(C(=O)CCCCCC(=O)C2c3cccc(O)c3C(=O)c3c(O)cccc32)c2cccc(O)c21`, the GI50 is inactive: 5.07 µM.

In the case of `c1ccc(C2N3CCCCC3[C@@H]3c4[nH]c5ccccc5c4CCN23)nc1` (stereo not given in full), the GI50 is inactive: 37.2 µM.

For `Cc1ccc2sc3ccc(N)cc3c(=O)c2c1`, the GI50 is inactive: 35.2 µM.

Regarding `C/C(N)=C/C(=O)c1[nH]c(C(=O)O)cc1C1CCN(Cc2ccccc2)C1=O` (stereo not given), the GI50 was inactive: 23.1 µM.

In the case of `CN(C)CC1CCCC/C1=N\OC(=O)c1ccccc1` (stereo not given), the GI50 is inactive: > 100 µM.

As for `NC1CCCCC1`, the GI50 is inactive: > 562 µM.

As to `CCOC(=O)CCC(NC(=O)c1ccc(CNc2nc3cc(N)cc(N)c3nc2-c2ccccc2)cc1)C(=O)OCC` (stereo not given), the GI50 was inactive: > 47.1 µM.

Consider `COc1cc(/C=N/n2c(-c3ccccc3)n[nH]c2=O)cc(OC)c1OC`, for which the GI50 was inactive: 13.6 µM.

As for `O=c1oc2c([N+](=O)[O-])cc([N+](=O)[O-])cc2c2ccccc12`, the GI50 was inactive: > 100 µM.

As for `C[Si](C)(C)C1=C([Si](C)(C)C)C(Cl)(Cl)C1=O`, the GI50 was inactive: 13.9 µM.

Regarding `COC(=O)NC1C(C)OC(OC2C/C=C(/C)C3C=CC4C(OC5CC(OC6CC(OC7CC(O)C(O)C(C)O7)C(OC7CC(O)C(OC)C(C)O7)C(C)O6)C(O)C(C)O5)C(C)CC(C)C4C3(C)C(=O)C3=C(O)C4(CC(C)C(CO)=CC4/C=C\2C)OC3=O)CC1(C)[N+](=O)[O-]` (stereo not given), the GI50 is inactive: 10.6 µM.

On to `O=C/C=C/c1ccco1`, for which the GI50 is inactive: > 100 µM.

Turning to `COc1cccc2nc3c(C(=O)NCCN(C)C)cccc3nc12`, the GI50 is inactive: 6.79 µM.

With `COc1cc(Br)c(/C=N\c2cccc3ccc(OS(=O)(=O)c4cccc([N+](=O)[O-])c4)cc23)cc1OC`, the GI50 is inactive: > 100 µM.

With `CC(C)(C)OC(=O)N/N=C(/N)Cc1ccccc1`, the GI50 was inactive: > 100 µM.

Regarding `c1ccc2sc(C3(N4CCC5(CC4)OCCO5)CCCCC3)cc2c1`, the GI50 is inactive: > 100 µM.

`C=C(C(=O)O[C@H]1C(=O)C2=C(C)CCC3C(=C)C(=O)O[C@@H]3C2[C@]1(C)O)C1CC[C@]2(C)CCCC(=C)[C@H]2C1` (stereo not given in full): the GI50 is inactive: 15.8 µM.

`CC(=O)NCCCCNCCCNC(C)=O`: the GI50 was inactive: > 100 µM.

As for `CCOC(=O)c1c(C)[nH]c2c1c(CN(C)C)c(O)c1nc(C)c(C)nc12`, the GI50 was inactive: 25.1 µM.

As to `COc1ccc(N(C(=O)Nc2ccc(Cl)c(Cl)c2)c2ccccc2)cc1`, the GI50 is inactive: > 10 µM.

On to `O=S1(=O)NN=C(NCc2ccc(Cl)cc2)c2ccccc21`, for which the GI50 is inactive: > 100 µM.

For the compound `COC(=O)c1csc([C@@H](OC(=O)[C@H](C)[C@H](CCCC(C)(Cl)Cl)OC(=O)c2csc([C@H](O)CO)n2)C(C)C)n1`, the GI50 is inactive: 15.7 µM.

For the compound `COc1c(C)c(C/C=C(\C)CCCCO)c(OC)c2ccccc12`, the GI50 was inactive: 57.4 µM.

Consider `COC(=O)C1N=CSCC1(C)O` (stereo not given), for which the GI50 is inactive: > 100 µM.

For the compound `CC(C)n1c(=O)[nH]n(-c2ccccc2)c1=O`, the GI50 is inactive: > 100 µM.

Regarding `COc1ccc2c(c1)c(CC(=O)O)c(C)n2C(=O)c1ccc(Cl)cc1`, the GI50 is inactive: 30.6 µM.

As for `C[C@H](CCC(=O)NCC(=O)O)[C@H]1CC[C@H]2[C@@H]3[C@H](O)C[C@@H]4C[C@H](O)CC[C@]4(C)[C@H]3CC[C@]12C`, the GI50 is inactive: > 100 µM.

Consider `c1ccc([P+](Cc2ccccc2C[P+](c2ccccc2)(c2ccccc2)c2ccccc2)(c2ccccc2)c2ccccc2)cc1`, for which the GI50 was inactive: > 100 µM.

On to `O=c1oc2cc(O)ccc2cc1-c1nc2ccccc2s1`, for which the GI50 is inactive: 25.2 µM.
